# Laboratory results from publication PMC6212790.
# The other results are listed elsewhere or left out. At the low end of the ranking the order means little.
# Biological target: T1, GST-Rok (full length) (UniProt O34857)
# T1 sequence: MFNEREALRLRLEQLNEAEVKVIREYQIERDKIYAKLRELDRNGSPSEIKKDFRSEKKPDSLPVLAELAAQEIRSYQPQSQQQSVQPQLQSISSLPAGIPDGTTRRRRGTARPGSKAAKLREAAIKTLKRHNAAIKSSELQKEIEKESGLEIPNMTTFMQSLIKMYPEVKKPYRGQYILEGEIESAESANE
# Experiment: protein binding microarray;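 also: rank score from −0.5 (least bound) to 0.5 (best bound)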
# Settings: Rok is a gene silencer of Bacillus subtilis; high values mean tight binding; most listed sequences are background and not binding sites; double strand, one strand shown
row,Sequence,binding signal [E-score]
1,AGTCGCCC,-0.219
2,GGTGTCAC,-0.0752
3,ACTGAAGC,-0.0066
4,CACTAGGC,-0.166
5,CACGACTA,-0.0277
6,CTCAGTAC,-0.0326
7,AATAAATA,0.345
8,GATATACC,0.291
9,CGAATTTC,0.0633
10,GAGTCACA,-0.0916
11,ATTGTAAC,0.231
12,ACCGCGAG,-0.221
13,ACAGAAAC,0.163
14,ATGCATCC,-0.0683
15,CATAGACC,-0.153
16,AGTGTGGC,-0.24
17,ACTCTCAA,-0.131
18,TTCCAGAA,0.0972
19,TCGGTGAA,-0.0505
20,ATCCAAGA,0.0878
21,GCTCTGCA,-0.148
22,CCCTTACA,-0.136
23,CAGGAGCG,-0.0647
24,AACGCGGA,-0.00907
25,GACCGAGC,-0.252

row,Sequence,binding signal [E-score]
1,CCCAGTCA,-0.201
2,AACAAACG,-0.0135
3,ACCACCTA,0.0972
4,CAGGCGTC,-0.224
5,GTACTCTA,0.207
6,CACACCGC,0.0286
7,ATTTCGAA,0.251
8,GCATGCAC,-0.0775
9,CGCAGAAG,-0.158
10,CGAGGGAA,-0.16
11,GCAGCTCC,-0.203
12,AGCAGTCG,-0.127
13,AGTTCAAG,-0.0154
14,CCGGCTGA,-0.0957
15,CCGCACAG,-0.299
16,ATAGGTGA,0.0572
17,GGAAATCC,-0.213
18,TAGTTTGA,0.347
19,GTGCTCGA,-0.205
20,ATTAGCAG,0.186
21,CATACGCA,0.0888
22,AGTCTACA,0.223
23,AGGGCACT,-0.148
24,ACGCCAGA,-0.147
25,AAATCCTT,-0.0579

row,Sequence,binding signal [E-score]
1,CGATTAAG,0.0852
2,AAGAACTC,0.0264
3,AGAGTGAA,-0.0866
4,CTCAACGC,-0.055
5,GCTGGTCC,-0.17
6,ACGGTTGG,-0.0465
7,AAGAGAAA,-0.0791
8,GATGCAAA,-0.0054
9,GTATGCCA,0.0606
10,CGTTGTAA,0.164
11,AAACTCAC,0.0104
12,AATGACAT,0.144
13,AATCGCAC,-0.0941
14,TCTATACA,0.216
15,CAACTCGA,0.159
16,GGATTACC,-0.101
17,CATCTAAC,0.031
18,GGTAGTAA,0.335
19,CAGTTCAG,-0.197
20,GTCCGCAC,-0.129
21,AAAGTGAG,-0.0263
22,ACAGCATG,0.0491
23,GGACAGAC,-0.252
24,AGGTACAT,0.182
25,CTAGCTAC,0.198

row,Sequence,binding signal [E-score]
1,AGAGCTGC,-0.0428
2,CCATCACG,-0.206
3,CACTGTCC,-0.117
4,TGGAACAA,-0.0437
5,GATTTGAA,0.0393
6,GAGCTACC,0.0563
7,TCCGCCAA,-0.313
8,TCAAAAAA,-0.0457
9,GACCACTA,0.0333
10,CGTTATAA,0.173
11,CCAGGTGA,-0.179
12,AACTTCCT,-0.128
13,CGGCCAAA,-0.00525
14,AACAGATT,0.0218
15,CTATGAGA,0.0936
16,CCTCAATA,-0.104
17,GACGACCC,-0.304
18,GTGCTCTA,-0.155
19,ACAATCCA,-0.0266
20,TACCACCA,0.161
21,AGTAGCCC,-0.206
22,GTAATGCA,0.0743
23,CCTTCATA,-0.00231
24,GTCTCTCA,-0.17
25,CTCTTACA,-0.0257

row,Sequence,binding signal [E-score]
1,AGTTTTAA,0.165
2,GCGCCTCA,-0.273
3,CTTTAGCA,0.00034
4,AGCGCCCC,-0.293
5,GCGGTCCC,-0.343
6,GGAAGAAA,0.0818
7,ACGAGAGC,-0.0368
8,TTCTTCAA,-0.0756
9,ACCTCCGT,-0.202
10,CGACAGGA,-0.211
11,TAAAGGTA,0.156
12,CCCGCTAG,-0.127
13,CGCGTTAC,0.0686
14,AGCCCTAC,-0.0981
15,GCATCTGA,-0.151
16,ACTTAAAC,0.00251
17,CGCAACGA,-0.0427
18,CTTGAACC,-0.226
19,AGATAACG,0.225
20,TAAGTAGA,0.305
21,CCCGCGCG,-0.273
22,TCCAAAAA,0.0831
23,CTCGACCA,-0.0329
24,CCTATGCA,-0.0718
25,ACACCACC,0.0301

row,Sequence,binding signal [E-score]
1,ACGCAAAT,0.0117
2,AATCAAGG,0.119
3,CCCAAGCC,-0.364
4,ACTTGGTC,-0.00297
5,TAACCGTA,0.213
6,AAGGCGAC,-0.246
7,GAAAGATC,-0.0394
8,ATGGCCAT,0.00684
9,GCGGTCCA,-0.151
10,CTTTTATC,0.118
11,ATACTGGG,0.108
12,AAGGCCAT,-0.205
13,GGGAGGTA,-0.0191
14,CTGTATTA,0.235
15,CAAGACTA,0.156
16,GATAACTA,0.222
17,ACATGAAA,0.0981
18,AGATCAAA,0.122
19,AACTACGG,0.204
20,ACCACAAA,0.0984
21,CATGTTAC,0.198
22,AACGCTCC,-0.107
23,ACCATTAC,0.253
24,CTTGACCC,-0.171
25,ATTTAAGG,0.0771

row,Sequence,binding signal [E-score]
1,ACAGTATC,0.217
2,AATCTCTC,-0.109
3,TGATGAAA,0.0174
4,CTAGGTCC,-0.139
5,GGTGACCA,-0.29
6,ACACGCCA,-0.0741
7,CCGAGCGG,-0.285
8,ACAAGATG,0.0595
9,AAGAAAGT,0.196
10,CAAAGGGA,-0.273
11,AAGCGGCG,-0.233
12,ATGTCGTG,0.0678
13,GCTGATGA,0.015
14,AGGCCCCA,-0.319
15,CGCATCGC,-0.115
16,CCGGTATA,-0.0189
17,ATCAGACA,0.0832
18,CTCAATTA,0.136
19,CATGAGGG,-0.336
20,GCAAAACA,-0.0687
21,ACGTTGTC,0.0359
22,CTGAAAAA,-0.101
23,GGAAACCA,0.021
24,TAACGCGA,0.0215
25,ATGCAATG,0.139

row,Sequence,binding signal [E-score]
1,TGAGGTAA,0.232
2,GAGGGCCA,-0.397
3,AAAAATCC,-0.00162
4,CATGCGAC,-0.15
5,CCCCCTCC,-0.375
6,AGCACTTC,-0.211
7,CTGCGGGA,-0.343
8,AAAGCACT,-0.195
9,TGAGCACA,-0.0185
10,GGAGGTTA,-0.182
11,CATCCTGG,-0.0994
12,AAGAATGT,0.196
13,AGAGGGCT,-0.199
14,CAAATGCG,0.157
15,GTTGCATA,-0.0386
16,AGGTCCTG,-0.11
17,ACCCATAA,0.192
18,AAATCGAA,0.134
19,AGGTTGCC,-0.167
20,AACCACGT,-0.0233
21,CTGGCTTC,-0.141
22,ACAAGGCA,-0.0211
23,CATGCATC,-0.0197
24,ACCCTTAC,-0.226
25,GCAGCAAA,-0.101

row,Sequence,binding signal [E-score]
1,ATATAATG,0.303
2,ACTATTCC,0.171
3,ACTAAAAC,0.303
4,ACCTATCA,0.232
5,CAGTGTAA,0.192
6,CCGCGTCG,0.0351
7,GCCGGTCA,0.0813
8,AACCCCGA,-0.267
9,ATACGAAA,0.194
10,AGGAGACC,-0.199
11,CACCATCG,-0.0961
12,GCAATCTA,0.361
13,ACGTGAAC,0.0387
14,AACAACAC,-0.114
15,CCTTAGCG,-0.0304
16,CCAATCCA,-0.00866
17,ACATGCAA,0.138
18,CGATTTAA,0.0615
19,CTTGGAAA,-0.0731
